According to the supplement of paper PMC10126150:
Sequences with one replicate were seen in a single cluster, so their values are uncertain.

Tested on: ATP
Test: switch fluorescence ratio, 500 uM ATP over buffer (Cy3 cluster intensity, sum of 5 cycles each) (fold (ratio)); higher = stronger signal-on switching upon ATP binding; sequences stand for … in TCGTCGGCAGCGTCAGATGTGTATAAGAGACAGTTTTTTTTTTTTTTTTTTTTTTTTT…TC
Conditions: aptamer strand: ATP DNA aptamer (quencher-CACCTGGGGGAGTATTGCGGAGGAAGG + anchor), 100 nM annealed; ATP concentration: 500 uM; one replicate
Outline: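 For every switch-domain sequence, the fluorescence ratio is the mean of per-cluster values, each being summed target-cycle Cy3 intensity over summed buffer-cycle Cy3 intensity. Clusters outside 100-1000 RFU were excluded. On a modified Illumina MiSeq flow-cell, the Cy3-labelled switching-strand clusters were annealed to 100 nM quencher-labelled ATP aptamer, imaged in selection buffer and then after 15 min with 500 uM ATP at 22 °C. Five such cycles were run, with NaOH stripping and re-annealing between them.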
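Further: ATP exposure 15 min at 22 °C before imaging.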

Sequence | switch fluorescence ratio
TCAAGAATAG | 1.01
CCGGGTCCGT | 1.41
GGTCGACAG | 0.952
TTCTGTGTCT | 0.997
CTGAGGGCAA | 2.97
CGGGTTGAAA | 1.04
TCAGTCAGGT | 0.975
TTTCCCCTAC | 1.07
CGAGACGCCC | 1.03
TTGACGCCCT | 1.12
CGGAAGTCGG | 1.05
GATATTAAAA | 1.04
TAGTAAAGGC | 1.05
AATGTTATAC | 1.01
CTCACGATTG | 1
TTGAGAGCCC | 0.959
AACTTCCAGA | 1.02
ACGAGTCACG | 1.1
CCGGGGTGTC | 1.17
AATTCTGTCA | 1.01
GGGCACATAT | 1.07
CGCAGGAGGG | 1.03
TGAGCCTTTT | 1.02
ATATTTGGTA | 0.932
CCTGCGGTAT | 1.71
AGGATGTATA | 0.99

Sequence | switch fluorescence ratio
ACATGTTTGA | 1.02
TCCAACTTAA | 1
TAAGACTTAA | 1.02
CGGCGCTGTC | 0.97
ATATGCGGAA | 0.993
TCAGGCACCT | 1.14
AGAGATTTGT | 1.01
TGTGCAGGCG | 1.03
ATTAATTTCA | 1.01
TGAAGTGGTT | 1.01
GGATGGAATA | 0.985
GAGACGAGGG | 1.05
GTGCTAATAT | 1.03
CTGCTTCGTA | 1.01
CGTACTTACT | 1.29
AGGGGTTTC | 0.993
CACACTAGTC | 1.05
GTCCCGACAA | 1
TCAGCACCGG | 1.04
GCTGATTGTT | 0.986
GTCTCCGGGG | 0.962
AACGATTGTG | 0.943
CTTTGTTCCA | 0.98
AACAGGATGG | 0.992
GAGTCGAATC | 1.13
TACCTCATAG | 1.02

Sequence | switch fluorescence ratio
GCTGAAAATT | 0.978
AAAGTAATAT | 1.07
ATTTGTCAAT | 1
CACGGTAAAA | 1.08
TTAAGAGAGT | 0.984
CTTTTATGGA | 0.946
AAATTATCCT | 1.08
ACATCGTATG | 1.01
CTTTGTTTTG | 0.998
CTGGATTTCG | 0.973
ACTGAGTAGA | 1.02
ATCGAGGTGA | 1.03
GAAAAGGCTA | 1.01
CGTGGTTAAA | 0.968
TCTTGCTCAA | 1.04
TTGAGGTTTC | 0.979
TTCGTTACAC | 1.11
TTTCATAAGC | 1.04
TGCAGGGCG | 0.991
CAGTTATGGT | 0.99
ATAACCTGCG | 1.29
ATCTGCCAGT | 0.952
ACCTTGGTTC | 1.02
AGCGACTTGC | 1.01
GGTAGCGTGA | 1.02
AGTAGCCGCC | 1.01

Sequence | switch fluorescence ratio
AGATATCTTG | 0.993
AGTATCAAAC | 0.991
ACTGAGATTC | 1.09
GCGGCCAATC | 1.64
AAGAGATGAC | 0.963
GGTCTTAGCG | 0.969
CCCAGTTCAC | 1.05
CGGTGTCGT | 1.06
TCGAAGTGCG | 0.991
GGGTTCGTGC | 1.01
TATCGTGTTC | 0.977
GTTTCAGTAT | 1.02
TTATTAGGTT | 1
TCACACATAC | 1.78
ATACATGAGC | 0.935
CGACAGGACG | 1.16
TTTGTGCACG | 0.961
TGAATATAT | 0.931
TGAGAAAGGC | 1.18
TAGGCATCTT | 0.987
TGCTGTAGCT | 1
TGCTAATCGG | 0.964
CAGAATTAGT | 1.03
TGAACGTGA | 1.06
CTTCTGACGG | 1.84
TTTCCGTCAA | 4.73

Sequence | switch fluorescence ratio
GTTAGCACCG | 1.05
GTGAAGAATA | 1.01
GAATGGCGGT | 0.998
GGCTCGTAGC | 0.956
ATTTGCCGTT | 1.02
ATTTCACATG | 1.02
TGACTATCTC | 1.08
ATCGATGGTT | 0.965
AGTGGATAAT | 0.998
GCCACTGAGG | 1.02
TCCTGCGCCC | 3.91
GAGTATCGTG | 0.935
TCTATTGCTT | 0.986
TCCTACACTG | 1.12
ATTGGGGGA | 0.977
CGATGGAATT | 1.1
AGCATGTCGA | 1.08
GAAACCCGTT | 1.06
AATAACTTAG | 1.01
GGTCTAATAG | 0.984
AGGGGAAGG | 0.999
GGCCGACCTC | 1.19
GTGTCCGATA | 1.04
CAAGAACGCA | 1.08
CCTAAGCCAA | 3.14
TCTTACCGAC | 1.44

Sequence | switch fluorescence ratio
CTCTTTCTT | 1.02
AAATGTCGA | 1.02
AGCAGTAAGC | 1.03
GAAGTGTAGT | 1
GTGTCTAGAT | 0.988
AAAACCTGCT | 1.12
ACTTGCAGTA | 1.03
TTGATCGTCG | 0.961
AACCTGTGGG | 0.998
TCCCACGGG | 1.11
TCGTTCGTTT | 0.98
CATCATAGGT | 1.06
AGTGTCACCT | 1.05
ACGCGCCGTT | 1.03
GTACTGCAAT | 1.79
AACGAATAGC | 1.04
GGTCAGGGAT | 1.01
CATTGCTTTC | 1.01
ACTGCTACCG | 1.2
CACAAAATCA | 1.02
CTAAACTTTT | 1.04
GTACGACATA | 1.07
TAGGCTGCTA | 1.08
CGTACGGCGA | 1.18
TGCAGTCTGG | 1.18
CCCGGCATC | 1.06

Sequence | switch fluorescence ratio
TTGTGTTAC | 1.07
TGAGTGGCAC | 0.995
GTGGGAGATC | 1.51
AGGCTACGAT | 1.02
ACCGGTCGTA | 0.948
CTTATCCATC | 0.97
TTCCCCACAT | 1.18
TAAATAGGTC | 1.02
CTGATGGGTC | 0.952
GACCACCGTA | 1.11
TTCACTCTTA | 0.991
TCAAAGAGAG | 1.02
GAATAAGTTG | 1.04
ATAATTTCTC | 0.977
TGAAATTGCG | 0.987
AATCATTTCT | 1.06
GTGAGAGGCA | 1.05
TTTTTAGTT | 0.959
AGGAATGCCG | 0.959
CCTATGGGTA | 0.991
TTTCTTCT | 0.975
AGCTTTGAAG | 1
GTGTCCACCT | 1.06
GATCAATACT | 1.53
TTTAGATTC | 0.983
AGGGTGATGG | 0.988

Sequence | switch fluorescence ratio
AGTAAATGAC | 0.977
CTAGCTTACG | 1.01
CCGGCGCTGA | 1.29
GGCAGTGTTA | 0.938
CCTCGCTGGG | 2.18
CAACGTTAAA | 1.69
TTATTTGTAA | 0.995
GCGATGGCTA | 1
GAGTGATTTT | 0.982
CGAGCTGCCG | 1.12
GGAGGGATGT | 1.01
CCGGCAAAGG | 1.33
GGGATCAATA | 1.02
ACAGATCTGG | 1.02
CGCCGTGTG | 0.966
GGACGTTTAC | 1.33
GAAATCCA | 0.991
CGAGCAACGG | 1.13
CCTGTAATTA | 1.12
